The campaign covered roughly 340,000 compounds. About 12,000 (3.5%) were called active. This list was built around the results that the source calls inconclusive (neither active nor inactive); the mix of calls is not that of the screen. Calls come from the whole dose curve; as a rule, active = well fitted inhibition curve with a large enough effect; inconclusive = small, poorly fitted or top-dose-only effect, or another doubt; inactive = no such curve, though single readings can be large or run the other way. Potencies of inconclusive entries are left out as doubtful fits.
Assay: qHTS Assay for Inhibitors of Hepatitis C Virus (HCV)
Settings: Huh7.5.1 HCVcc-Cre (HCVcc is cell-culture hepatitis C virus) infection, luciferase reporter, 44 h; series mostly up to 41.8 µM
Excerpt: Hepatitis C virus (HCV) infects about 200 million people in the world. Many infected people progress to chronic liver disease including cirrhosis with a risk of developing liver cancer. To date, there is no effective vaccine for hepatitis C. Current therapy based on interferon is only effective in about half of the patients and is associated with significant adverse effects. The fraction of people with HCV who can complete a successful treatment is estimated to be no more than 10 percent. Recent development of direct-acting antivirals against HCV, such as protease and polymerase inhibitors, is promising but still requires combination with peginterferon and ribavirin for maximal efficacy. In addition, these agents are associated with high rate of resistance and many have significant side effects. Due to the lack of a culture system for infectious HCV, the search for new HCV drugs has been greatly hampered. […]
The assay will start with plating 1,000 cells/well in 3 µL volume and culture for 4 h. […] A volume of 4.5 µL luciferase substrates will be added to each well and the plates will be incubated at room temperature for 15 min. and then read for 15 sec. for the luciferase activity
Tags give direction and shape of the fitted curve.

SMILES | Potency
O=C(CSc1ncnc2sccc12)N1CCN(C(=O)c2cccs2)CC1 | inconclusive [inhibitor, single point]

From PubChem BioAssay AID651820 (National Center for Advancing Translational Sciences (NCATS), 2012)
